# Reference: the supplement of paper PMC11417369
# ± gives the standard deviation of the averaged measurements. The list shows a part of the results.
# System: PfAP2-LT AP2 domain (GST-tagged)
# Assay: gcPBM binding intensity (ln(normalized median fluorescence intensity)); higher = stronger DNA binding
# Summary of the method: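 Plasmodium falciparum DNA-binding domains carrying a GST tag were expressed in E. coli and applied for 1 h, at about 25 μg on average, to an Agilent 4 × 180k array. The array held primer-extended double-stranded 36-bp intergenic genomic probes together with negative controls, and binding took place in 1× PBS with 1% milk, 0.2 mg/ml BSA, 0.5% salmon testes DNA and 0.03% Triton X-100. An Alexa488 anti-GST antibody detected bound protein, and the array was scanned at 488 nm. Binding intensity is taken as the highest Masliner-normalised natural-log median intensity across replicate spots of either probe orientation.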
row,Sequence,gcPBM binding intensity (ln)
1,AGCTATAATAAATATACACACATATATAAATATGTA [CACACA_site6583],8.97 ± 0.4
2,ATATATATATAATAAGTGCAAAAATAATGACCTATA,9.04 ± 0.42
3,AAATATATATAAGCGTGTACACATTCTGAGTGTTGT [XGTACX_site1088],9.13 ± 0.41
4,ATAATAAAAATAAAATGTACATACATAAATATATAT [XGTACX_site6228],8.89 ± 0.46
5,TATCGTTTTATTCGGTTGCACCAAAAAAATAAAATA [GTGCAC_site9408],8.26 ± 0.47
6,AAAGTATAACGGATACCATTTATGTGATTATTTTGT [XGTACX_negctrl_site188],8.73 ± 0.45
7,AAAAAAAATTAAAATAAAATATAAATATAAAATATA [GTGCAC_negctrl_site714],8.39 ± 0.48
8,TATATATTTTTATGCACACACAAAGAAAATTTTCCT [CACACA_site2863],9.26 ± 0.5
9,TGTATGTATTTGTGTAGTACGCATAAGTAATAAAAC [XGTACX_site6704],9.03 ± 0.38
10,AATATATTTAATGAGTGTACATTATTTATTATTATT [XGTACX_site6889],8.83 ± 0.41
11,AAATAAAAAAAATAAAAGCAATCATAATAAAAATCT [CACACA_negctrl_site161],8.79 ± 0.46
12,AATTTATATTAAAATTGTACATTTCTTCTATAATAC [XGTACX_site8639],8.63 ± 0.42
13,TTTGGCTAGTCAAGTTGTACAAAAAAAAAAAAAAAA [XGTACX_site8382],8.38 ± 0.54
14,ATACTTTTAATATGCACATGCAAATATGAAATATCG [TGCATGCA_site603],8.67 ± 0.28
15,TACCAAAAGAAACACACACACAAAATATATAAATAT [CACACA_site1869],9.88 ± 0.28
16,TCCCATATATATATATATATATATATATATAATAAT [TGCATGCA_negctrl_site41],9.33 ± 0.085
17,TTTTTATAGGTAAAAACACACGCTAAAAATAATTAA [CACACA_site3731],8.59 ± 0.41
18,CATTTTGTTTTAAAGTGTACATTATGTAATATAAAA [XGTACX_site647],8.4 ± 0.47
19,ATTTATATTACCCTTGCATGTAGGTGCAATTTTTTT [TGCATGCA_site757],9.11 ± 0.38
20,AAATAAATAAATAAATAAACAAATATGTATAAATGG [XGTACX_negctrl_site153],8.85 ± 0.51
21,TTTATAATTTATATCACACACATATATATATAGTAA [CACACA_site8],8.89 ± 0.4
22,AATAAATATATATTCACACACAAACATATATATATA [CACACA_site4023],9.4 ± 0.39

row,Sequence,gcPBM binding intensity (ln)
1,AGGTACTTTTTTAAAACACACATATAATAAATACAC [CACACA_site4730],8.83 ± 0.51
2,TCAACTATCAATATAGTGCATTTTTTTTGGAAAACC [GTGCAC_site9927],8.41 ± 0.52
3,TATCAAAATTAGTATACACACAAAATTAATCAAATA [CACACA_site7117],8.87 ± 0.42
4,ATAAGATTAAACATTGCACACAGAAATATATTTTCT [CACACA_site8743],9.12 ± 0.34
5,CCTATATAATATATTTGTACTTAATAATTAAAGTGT [XGTACX_site5151],8.61 ± 0.47
6,TATATATATATATATTGTACATATGTAACCTTTTAA [XGTACX_site3914],9.18 ± 0.23
7,TTTTTTAGATTACATAAATATAAATATAAATATATA [GTGCAC_negctrl_site459],8.07 ± 0.47
8,TAAAATAAAAATTTATGTACACATAAAAAAACAAAA [XGTACX_site1112],8.71 ± 0.63
9,GAGAGTACCTATATTGCATGCAGACTTTTTAAATAT [TGCATGCA_site564],8.99 ± 0.3
10,TTAATAAGAGAGCAATAGGTGGACTGTTTCTTTTAT [CACACA_negctrl_site1239],8.72 ± 0.39
11,TTTTTTTTTTTTTGTAGTACATTATGTATATTTTTA [XGTACX_site7810],8.64 ± 0.52
12,GTTAAAATAATATGGTGTACAAATATATAAGTTCAT [XGTACX_site3262],8.99 ± 0.42
13,ATATATATATATAAAAGTACTTATTTTTATTTACAT [XGTACX_site4299],9.13 ± 0.28
14,AATTTACATATATATTGTACATTTATGTATATATAT [XGTACX_site4186],8.99 ± 0.45
15,TAATATTTTTTGTGTACACATATATATATATATATA [CACACA_site5504],9.505 ± 0.064
16,TACTTATATTGAAATGGTACAGATAAAAAAAAAAAA [XGTACX_site1407],8.45 ± 0.52
17,ACATTCTATCTAAGTACACACATTAATTTTTTTTTT [CACACA_site4106],8.96 ± 0.52
18,TTTTGTAATGTGAATATTTGTATATTATTTGTATAT [CACACA_negctrl_site1677],8.73 ± 0.47
19,AATTTCTTCTTAGGGTGTACAATTTGACATAAGGAA [XGTACX_site1773],8.45 ± 0.27
20,ATCTTATATCGTAGAGATTTTTTTTTTTTTTCATTT [XGTACX_negctrl_site140],8.55 ± 0.51
21,GTAATATATATTAAGTAATAGTTTATCTTAGGAAAA [TGCATGCA_negctrl_site302],8.57 ± 0.52
22,AATTAGATGGATAAATGTACATATGTGAATATATTT [XGTACX_site85],8.9 ± 0.41

row,Sequence,gcPBM binding intensity (ln)
1,AAAAAAAAAAAAAACACACAAACATCAAATTATTAT [CACACA_site1838],8.95 ± 0.54
2,GTGCCCTTTTTAATAACATGCAAATAACATATTTAT [TGCATGCA_site709],8.76 ± 0.34
3,TTTATATTATACGCACTAATATATATATATATATAT [TGCATGCA_negctrl_site47],9.1 ± 0.37
4,ATATAACACAAGGGCACACATATACCTTTCCTTTTT [CACACA_site412],9.02 ± 0.42
5,CTTCTTGTAAAATTTGCATGTAATTAAAAGAGAATG [TGCATGCA_site484],8.31 ± 0.35
6,GCCTTTTAGTATTTCACACACGTAAATGAGTATATC [CACACA_site4748],9.17 ± 0.3
7,TTCCCTATCTTTTCAGTGCATTTTGTTTCCTACCTT [GTGCAC_site9813],9.07 ± 0.58
8,TTTAAATATATATATTGTACAAAAAAAAATAATAAA [XGTACX_site4759],8.48 ± 0.52
9,ATAAAATTTATGACTTGTACATGTAAATAAAATATA [XGTACX_site762],8.77 ± 0.38
10,TGTAGAACTCAATATTGTACATTATATAAAATGGGA [XGTACX_site3857],8.68 ± 0.37
11,ATATATATATATTGTACACACATTTATGCATATATA [CACACA_site5738],9.37 ± 0.3
12,TTTTTTTGCATTTCATGTACATATATTGAGCTTAAA [XGTACX_site8485],8.71 ± 0.45
13,ATATTACAGTACAATACATGCATATGGAAAAAAAAA [TGCATGCA_site72],8.92 ± 0.47
14,ATTGGTTCCCCTCTCTTTTCAATATATTTTTTTTTT [XGTACX_negctrl_site259],8.71 ± 0.6
15,ATAAAGAATATAAATACACACTTAAATATAGATTAT [CACACA_site7804],8.88 ± 0.43
16,TTCAAATGATTTATGTGTACATAAAATTATTTTTTA [XGTACX_site107],8.24 ± 0.43
17,GATATAGGGCGTATGTTAATCGTGAAAGAGTGTCTT [GTGCAC_negctrl_site102],8.99 ± 0.46
18,AAAAAATTAAAAATCACACATAAATATATATAAAAA [CACACA_site4192],8.62 ± 0.54
19,TAATGAAGCTTATGCACACGTTCATTATTTATATTA [CACACA_site3219],8.88 ± 0.33
20,TGGTCTTTTAAACAAAAATATAAATTTTTAAATATG [CACACA_negctrl_site392],8.09 ± 0.45
21,AAGAAAATTGTCTGAAGTACAAAACATTAATAATAT [XGTACX_site4864],8.88 ± 0.38
22,AGCTTGTGGATGCAGGTGCTACATTTGTTCTATAAT [GTGCAC_site9645],8.95 ± 0.34

row,Sequence,gcPBM binding intensity (ln)
1,AATTTAATATAATGCACACATAAAAAAAAAAAATTC [CACACA_site1504],8.96 ± 0.49
2,TATAAAAATATTTCTACACACATTAAAATATATATA [CACACA_site4770],8.7 ± 0.39
3,CATTTGCCCAGGCACACACACATAAAAAGAAAAATA [CACACA_site356],9.43 ± 0.57
4,AATGAAAGGATGCTGTGTACATATATATATATATAT [XGTACX_site7901],9.94 ± 0.32
5,TTTTTTTTGTGTTCAAGTACAAAATTTTAAAGGTCA [XGTACX_site4011],8.28 ± 0.42
6,TATATATATATATAAGCACACAAACAAAAAAAATTA [CACACA_site9293],8.97 ± 0.35
7,GGTTATTTCACAGAATGTACTTATTATATATAAAAT [XGTACX_site8886],8.69 ± 0.38
8,AAGATAAATTATTATAAATCAATTGTGCCAACAATA [CACACA_negctrl_site144],8.49 ± 0.45
9,AATATAAATAAAAACACACACACACCGATATATATA [CACACA_site5283],10.2 ± 0.11
10,AAGATTAGGTTAATTAGTACTTATTATATTGTAATG [XGTACX_site3653],8.57 ± 0.49
11,GATCCATTATTGATCCGTACTTATTCATGTTATATA [XGTACX_site5946],8.91 ± 0.51
12,TATATATATATATGTATGCACTTTAATTTTATAAGG,9.17 ± 0.35
13,TATATATGTATATATACACACAACGGTTATAAATAT [CACACA_site1128],9.16 ± 0.29
14,TGTTATAAGATTTATGTACACACATATACACCCCTC [CACACA_site8141],9.3 ± 0.33
15,AATGTAGAAATGGGTGCACACACATATATAATATAT [CACACA_site8799],9.57 ± 0.48
16,AATGTGTAGACACGCACACACAAAAAAATATATATA [CACACA_site5595],9.8 ± 0.55
17,GTTTTATTTTCAATGTGTACTTATTATTTGATATAC [XGTACX_site6402],9.04 ± 0.47
18,CATTTGCACCCGCACACACACATAAAAAGAAAAATA [CACACA_site4350],9.66 ± 0.53
19,TAATTTTTTTTAATAACACACATATAAATATAAATA [CACACA_site6521],8.31 ± 0.41
20,AACATTGATAAATATAAACACACGAAAACAGACATA [CACACA_site490],9.31 ± 0.44
21,GTACCTATTTCATACACACACACACCCAAACAAACA [CACACA_site976],9.96 ± 0.18
22,CATATTATTATTTTGGTGCATACTTATATATATTTT,8.85 ± 0.4
